Assay results as given in article PMC4336329 (PLoS ONE, 2015).
Out of some 310,000 compounds screened, about 14,000 (4.5%) showed an effect of 50% or more. Effects have a minus sign here. Some of the results follow.

target: human ether-à-go-go-related gene (hERG) potassium channel (human, UniProt Q12809); test: primary screen, population patch clamp on CHO cells stably expressing hERG
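Note: peak tail current of the secondary pulse compared with the same well before compound.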

Sequence of human ether-à-go-go-related gene (hERG) potassium channel (Q12809 whole entry, looked up): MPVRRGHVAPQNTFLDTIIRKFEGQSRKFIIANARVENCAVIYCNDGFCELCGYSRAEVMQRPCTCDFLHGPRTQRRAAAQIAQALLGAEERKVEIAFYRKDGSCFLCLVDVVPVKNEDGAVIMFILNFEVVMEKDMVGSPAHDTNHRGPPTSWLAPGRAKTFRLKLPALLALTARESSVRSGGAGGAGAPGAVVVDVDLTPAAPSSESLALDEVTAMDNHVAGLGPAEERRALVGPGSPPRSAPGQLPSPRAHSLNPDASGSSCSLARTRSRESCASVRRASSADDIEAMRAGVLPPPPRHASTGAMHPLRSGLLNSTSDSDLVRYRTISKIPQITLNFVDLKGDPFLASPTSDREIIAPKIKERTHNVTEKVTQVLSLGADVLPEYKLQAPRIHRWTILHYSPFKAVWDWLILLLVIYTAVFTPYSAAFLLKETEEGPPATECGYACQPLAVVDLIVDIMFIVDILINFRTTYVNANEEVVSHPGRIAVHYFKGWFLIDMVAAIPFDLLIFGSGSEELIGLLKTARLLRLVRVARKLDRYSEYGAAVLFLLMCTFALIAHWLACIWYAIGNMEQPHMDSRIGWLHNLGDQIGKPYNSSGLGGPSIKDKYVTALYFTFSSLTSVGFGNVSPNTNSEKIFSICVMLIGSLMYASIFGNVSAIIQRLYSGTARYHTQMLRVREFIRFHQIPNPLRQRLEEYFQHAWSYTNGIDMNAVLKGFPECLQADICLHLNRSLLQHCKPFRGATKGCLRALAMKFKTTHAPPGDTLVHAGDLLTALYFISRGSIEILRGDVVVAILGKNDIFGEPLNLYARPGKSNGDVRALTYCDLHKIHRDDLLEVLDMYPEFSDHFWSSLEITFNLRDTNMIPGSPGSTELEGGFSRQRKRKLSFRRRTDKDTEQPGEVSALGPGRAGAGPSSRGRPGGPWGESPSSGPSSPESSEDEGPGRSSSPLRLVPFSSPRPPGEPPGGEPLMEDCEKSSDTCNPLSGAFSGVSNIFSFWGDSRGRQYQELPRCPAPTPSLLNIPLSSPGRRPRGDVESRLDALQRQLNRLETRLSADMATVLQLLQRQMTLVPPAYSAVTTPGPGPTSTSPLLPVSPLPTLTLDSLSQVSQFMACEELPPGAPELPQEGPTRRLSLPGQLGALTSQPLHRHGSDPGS

Structure (SMILES)	hERG current change (%, negative = inhibition) at 10uM [%]
CCCC[C@H]1COCCS(=O)(=O)N1Cc1ccc(Br)cc1	-36.4
CCc1cc2c(COC(=O)c3cccc(NS(C)(=O)=O)c3)cc(=O)oc2cc1O	16
Cc1cc(C)cc(NC(=O)C(=S)NCc2ccccc2)c1	7.58
COc1cccc(C(=O)COC(=O)COc2c(C)cc(C)cc2C)c1	1.18
Br.COc1cccc(CNCC2CCCO2)c1 (stereo not shown)	13.9
CC(=O)OCCN1CCN(C(=O)CN2C(=O)NC(c3ccccc3)(c3ccccc3)C2=O)CC1	9.86
CC(=O)N1CCN(S(=O)(=O)c2cccc(C(=O)Nc3nc4c(s3)CCCC4)c2)CC1	-39.9
CCN(Cc1ccccc1)C(c1cc2cc(C)cc(C)c2[nH]c1=O)c1nnnn1CCOC (stereo not shown)	3.76
O=C(CSc1nnc2ccc(-c3ccncc3)nn12)c1cccs1	-35.2
COc1ccc(NCc2nnc(SCC(=O)c3ccc(OC)cc3)o2)cc1	-13.6
O=C(NN=C1CCCCCCCCCCC1)c1ccncc1	0.505
CC1CCCCN1C(=O)COC(=O)/C=C/c1ccc2ccccc2n1 (stereo not shown)	11
COc1ccc(/C=N/NC(=O)c2cnccn2)c(OC)c1OC	6.4
CCOCCCNC(=O)C(c1ccc(Cl)cc1)N1CCC2(CC1)OCCO2 (stereo not shown)	8.73
C/C(=N\OCC(=O)N/N=C/c1ccccc1O)c1cccs1	-8.52
N#CCc1ccc(C(=O)c2ccccc2F)s1	3.64
O=C(Cn1cnc2ccccc21)Nc1ccccc1-c1ccccc1	9.15
COc1ccc2nc(-c3ccccc3)nc(C3CCCCC3)c2c1	13.3
O=C(O)CSCC(=O)Nc1cc(C(F)(F)F)ccc1Cl	1.71
O=C(NCCCO)c1cc2c([nH]c3ccccc32)c(-c2ccc(F)cc2)n1	-47.2
Cc1oc(-c2cccs2)nc1CN1CC[C@@](O)(c2ccccc2)[C@H]2CCCC[C@@H]21	11.8
O=C(c1ccc2c(c1)OCO2)N1CCc2ccccc21	-2.34
CCCn1c(C)cc(C(=O)CN2C(=O)c3ccccc3C2=O)c1C	-14.8
O=C(COc1ccc(Cl)cc1)Nc1nnc(-c2ccco2)o1	0.669
COc1cc(NS(=O)(=O)c2ccc(C)cc2)ccc1-n1cnnn1	-12.4
